# According to PubChem BioAssay (Tox21):
# “And” between values parts separate entries of the source, which are not always exact repeats. Equal entries are not always repeated. Inconclusive means that the source gave no clear call. Such entries were picked first, then a sample of the others. Potencies of inconclusive entries are doubtful fits and often do not repeat. The source made the active and inactive calls. Unless noted, calls come from the whole dose curve; as a rule, active = well fitted curve in the direction sought with a large enough effect in the repeat runs; inconclusive = weak or mixed curves; inactive = no such curve, though single readings can be large; an effect the other way counts as inactive or inconclusive.
# Assays:
# [1] = qHTS assay for small molecule agonists of the antioxidant response element (ARE) signaling pathway (AID 743202; active = well fitted activation curve with a large enough effect in the signal ratio in the repeat runs, not every such curve was filed as active; inconclusive = weak or mixed curves, or effect the other way; inactive = no such curve, though single readings can be large or run the other way; the % refers to the signal ratio; for activation: % is set by controls: 0 for no effect and ±100 for the full control effect); conditions: HepG2 ARE-bla reporter, beta-lactamase FRET, 16 h
# Method in brief: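 ARE-bla HepG2 cells (beta-lactamase reporter under the antioxidant response element), plated 5 hours, then exposed to compounds 16 hours at 37 C. LiveBLAzer B/G FRET substrate added for 2 hours at room temperature; fluorescence intensity read.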
# [2] = qHTS assay for small molecule activators of the heat shock response signaling pathway (AID 743210; active = well fitted activation curve with a large enough effect in the signal ratio in the repeat runs, with a control signal flat, not every such curve was filed as active; inconclusive = weak or mixed curves; the % refers to the signal ratio; for activation: % is set by controls: 0 for no effect and ±100 for the full control effect); conditions: HeLa HSE-bla reporter, beta-lactamase ratio, 5 h; activation: at 62.6 µM (top of the series) unless noted
# Method in brief: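 HSE-bla HeLa cells (beta-lactamase reporter under heat shock response elements), plated overnight, then exposed to compounds 5 h at 37 C; LiveBLAzer B/G FRET substrate added, 2.5 h at room temperature, fluorescence intensity read.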
# [3] = qHTS assay to identify small molecule antagonists of the peroxisome proliferator-activated receptor delta (PPARd) signaling pathway - cell viability counter screen (AID 743213); conditions: PPARd-bla HEK293H viability, CellTiter-Glo luminescence, 17 h; viability change, negative = cytotoxic: at 62 µM (top of the series) unless noted; note: nearly all actives have a fitted effect of over 50% in size; for viability change, negative = cytotoxic: % is set by controls: 0 for no effect and ±100 for the full control effect
# Method in brief: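 In this counter screen, HEK293H cells carrying a UAS-beta-lactamase reporter are co-treated with test compounds and 300 nM L165041 (final) for 17 h at 37 C; cell viability is quantified by CellTiter-Glo luminescence.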
# [4] = qHTS assay to identify small molecule agonists of the farnesoid-X-receptor (FXR) signaling pathway - cell viability counter screen (AID 743218); conditions: FXR-bla HEK293T viability, CellTiter-Glo luminescence, 16 h; viability change, negative = cytotoxic: at 62.6 µM (top of the series) unless noted; note: nearly all actives have a fitted effect of over 45% in size; for viability change, negative = cytotoxic: % is set by controls: 0 for no effect and ±100 for the full control effect
# Method in brief: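 FXR-UAS-bla HEK 293T cells, plated 5 h at 37 C, were exposed to compounds for 16 h at 37 C. CellTiter-Glo was then added to the same wells as the bla readout; luminescence read after 30 min at room temperature.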
# [5] = qHTS assay for small molecule activators of the heat shock response signaling pathway - cell viability counter screen (AID 743209); conditions: HSE-bla HeLa viability, CellTiter-Glo luminescence, 5 h; activity change, negative = cytotoxicity: at 62.6 µM (top of the series) unless noted; note: nearly all actives have a fitted effect of over 50% in size
# Method in brief: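 CellSensor HSE-bla HeLa cells, plated overnight at 37 C/5% CO2, were exposed to compounds in DMSO for 5 h at 37 C. Viability was then read in the same wells by CellTiter-Glo luminescence after 30 min at room temperature.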
# [6] = qHTS assay to identify small molecule agonists of the peroxisome proliferator-activated receptor delta (PPARd) signaling pathway - cell viability counter screen (AID 743211); conditions: PPARd-bla HEK293H viability, CellTiter-Glo luminescence, 17 h; activity change, negative = cytotoxicity: at 62.6 µM (top of the series) unless noted; note: nearly all actives have a fitted effect of over 55% in size
# Method in brief: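 qHTS cell viability: PPARd-bla HEK293H; 17 h cpd, 37C; CellTiter-Glo, luminescence at 30 min RT.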
# [7] = target: Peroxisome proliferator-activated receptor delta (Homo sapiens) (UniProt Q03181); test: qHTS assay to identify small molecule antagonists of the peroxisome proliferator-activated receptor delta (PPARd) signaling pathway (AID 743215; active = well fitted inhibition curve with a large enough effect in the signal ratio in the repeat runs, not every such curve was filed as active; inconclusive = weak or mixed curves, or effect the other way; inactive = no such curve, though single readings can be large or run the other way; the % refers to the signal ratio;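 note: cells stimulated with agonist L165041 at 300 nM final during compound exposure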); conditions: HEK293H PPARd-UAS-bla, beta-lactamase FRET ratio, antagonist, 17 h; ratio activity, negative = inhibition: at 62 µM (top of the series) unless noted
# Method in brief: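 PPARd UAS-bla HEK293H cells were pre-incubated 5 h at 37 C, then given test compounds in DMSO plus agonist L165041 (300 nM final). After 17 h at 37 C, beta-lactamase FRET substrate was added; fluorescence read after 2 h at room temperature.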
# [8] = qHTS assay to identify small molecule agonists of the vitamin D receptor (VDR) signaling pathway - cell viability counter screen (AID 743224); conditions: VDR-bla HEK293T viability, CellTiter-Glo luminescence, 16 h; activity change, negative = cytotoxicity: at 62.6 µM (top of the series); note: nearly all actives have a fitted effect of over 50% in size
# Method in brief: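 VDR-bla cells were preincubated 4 h at 37C/5% CO2, then exposed to compounds for 16 h. After the 2 h room-temperature bla FRET read, CellTiter-Glo was added to the same wells and luminescence read after 30 min.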
# [9] = target: Vitamin D3 receptor (Homo sapiens) (UniProt P11473); test: qHTS assay to identify small molecule antagonists of the vitamin D receptor (VDR) signaling pathway (AID 743223; active = well fitted inhibition curve with a large enough effect in the signal ratio in the repeat runs, not every such curve was filed as active; inconclusive = weak or mixed curves, or effect the other way; inactive = no such curve, though single readings can be large or run the other way; the % refers to the signal ratio); conditions: VDR-UAS-bla HEK293T, beta-lactamase FRET ratio, 16 h; activity change, negative = inhibition: at 61 µM (top of the series) unless noted
# Method in brief: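 Reporter line VDR-bla; stimulus 1alpha,25-(OH)2 vitamin D3, 3 nM final; compound co-addition, 16 h 37C/5% CO2; LiveBLAzer B/G substrate 2 h RT; fluorescence intensity.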
# [10] = target: Peroxisome proliferator-activated receptor delta (Homo sapiens) (UniProt Q03181); test: qHTS assay to identify small molecule agonists of the peroxisome proliferator-activated receptor delta (PPARd) signaling pathway (AID 743212; calls by dose curve;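 note: HEK293H cells with PPARd UAS beta-lactamase reporter GeneBLAzer system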); conditions: HEK293H PPARd-UAS-bla, beta-lactamase FRET ratio, 17 h; activation: at 62.6 µM (top of the series) unless noted
# Method in brief: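 GeneBLAzer UAS-bla HEK293H cells carrying a PPARδ construct were exposed to compounds at 37 °C. Beta-lactamase activity was read by FRET fluorescence after 2 h at room temperature with LiveBLAzer B/G substrate.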
# [11] = qHTS assay for small molecule agonists of the antioxidant response element (ARE) signaling pathway - cell viability counter screen (AID 743203; calls by dose curve; note: nearly all actives have a fitted effect of over 55% in size); conditions: ARE-bla HepG2 viability, CellTiter-Glo luminescence, 16 h; viability change, negative = cytotoxic: at 73.3 µM (top of the series)
# Method in brief: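 CellSensor ARE-bla HepG2 cells, 2,000 per well, rested 5 hrs at 37C/5% CO2, then exposed to compound in DMSO for 16 hrs; viability read as CellTiter-Glo luminescence after 30 min at room temperature, in the reporter wells.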
# [12] = qHTS assay to identify small molecule antagonists of the farnesoid-X-receptor (FXR) signaling pathway - cell viability counter screen (AID 743221; active = well fitted cell-killing curve with a large enough effect in the repeat runs, not every such curve was filed as active; inconclusive = weak or mixed curves, or effect the other way; inactive = no such curve, though single readings can be large or run the other way; note: nearly all actives have a fitted effect of over 50% in size); conditions: FXR-bla HEK293T viability, CellTiter-Glo luminescence, 16 h; activity change, negative = cytotoxicity: at 62.6 µM (top of the series) unless noted
# Method in brief: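 After a 5 h settling period, FXR-bla HEK 293T cells receive compound and chenodeoxycholic acid (50 uM final) and incubate 16 h at 37 C; CellTiter-Glo luminescence, read after 30 min at room temperature, reports cell viability.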
# [13] = activation: at 73.3 µM (top of the series) unless noted
# Potency is the fitted concentration of half-maximal effect; tags give direction and shape of the fitted curve or compound fluorescence and quenching.
# UniProt Q03181, sequence (Q03181 whole entry, looked up): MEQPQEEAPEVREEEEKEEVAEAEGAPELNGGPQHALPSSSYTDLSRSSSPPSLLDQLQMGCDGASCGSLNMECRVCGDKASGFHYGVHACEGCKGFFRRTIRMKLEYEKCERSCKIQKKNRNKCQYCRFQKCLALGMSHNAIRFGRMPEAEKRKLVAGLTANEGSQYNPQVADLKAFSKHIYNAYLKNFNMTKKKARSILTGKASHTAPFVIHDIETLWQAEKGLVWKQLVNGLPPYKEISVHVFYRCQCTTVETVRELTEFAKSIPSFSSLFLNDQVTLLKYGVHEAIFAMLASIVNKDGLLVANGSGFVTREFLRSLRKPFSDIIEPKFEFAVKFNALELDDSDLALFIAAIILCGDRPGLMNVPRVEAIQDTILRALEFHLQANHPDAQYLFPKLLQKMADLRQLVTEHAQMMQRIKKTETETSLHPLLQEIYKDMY
# UniProt P11473, sequence (P11473 whole entry, looked up): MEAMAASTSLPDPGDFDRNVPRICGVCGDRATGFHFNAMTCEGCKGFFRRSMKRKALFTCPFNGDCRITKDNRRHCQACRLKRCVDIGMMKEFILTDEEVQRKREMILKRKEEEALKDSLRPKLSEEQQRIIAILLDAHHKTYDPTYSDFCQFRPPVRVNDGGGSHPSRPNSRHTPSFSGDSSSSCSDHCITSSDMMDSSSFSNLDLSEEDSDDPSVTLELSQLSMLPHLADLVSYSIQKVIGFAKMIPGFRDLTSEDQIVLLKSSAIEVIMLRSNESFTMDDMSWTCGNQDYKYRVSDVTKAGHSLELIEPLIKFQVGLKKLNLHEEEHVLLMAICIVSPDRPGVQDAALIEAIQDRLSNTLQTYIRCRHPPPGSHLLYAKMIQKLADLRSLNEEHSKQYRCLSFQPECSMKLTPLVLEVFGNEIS
compound,measurement,setting,value
CC1=CCC(C(C)(C)O)CC1 (stereo not given),activation,[1]; [13],inconclusive: -0.94% [at 94.8 µM]
same,Potency,[2],inactive
same,Potency,[3],inactive
same,Potency,[4],"inconclusive: 0.11 µM [rising, full curve, poor fit]"
NCCc1cnc[nH]1,Potency,[1]; [13],inactive
same,Potency,[5],"inconclusive: 13.3 µM [cytotoxic, single point]"
same,Potency,[3],inactive
O=c1[nH]c(=O)n([C@H]2CCCO2)cc1F,activation,[1]; [13],inconclusive: -19.6%
same,Potency,[2],inactive
same,"viability change, negative = cytotoxic",[4],inconclusive: -41.5% [cytotoxic]
NS(=O)(=O)c1cc(C(=O)O)cc(N2CCCC2)c1Oc1ccccc1,Potency,[1]; [13],inactive
same,Potency,[2],inactive
same,Potency,[6],"inconclusive: 5.96 µM [cytotoxic, single point]"
same,Potency,[7],"inconclusive: 37.6 µM [fluorescent, single point]"
same,Potency,[8],inactive
CCCC/C=C/CCCCO,Potency,[1]; [13],inactive
same,activation,[2],inconclusive: -0.286%
same,Potency,[6],"inconclusive: 21.9 µM [cytotoxic, single point]"
same,Potency,[4],"inconclusive: 0.309 µM [rising, full curve, poor fit]"
same,"activity change, negative = inhibition",[9],inconclusive: -40.2% [inhibitor]
CCC1(CO)COCOC1,activation,[1]; [13],inconclusive: -5.65%
same,Potency,[2],inconclusive: 54.7 µM [activator]
same,Potency,[10],inactive
same,Potency,[3],"inconclusive: 54.7 µM [cytotoxic, single point]"
same,Potency,[7],inactive
same,Potency,[9],"inconclusive: 0.0109 µM [falling, partial curve, poor fit]"
same,Potency,[8],"inconclusive: 61.4 µM [cytotoxic, single point]"
Cc1ccccc1S,activation,[1]; [13],inconclusive: -15.8%
same,Potency,[5],"inconclusive: 31.1 µM [cytotoxic, partial curve]"
same,Potency,[2],inconclusive: 39.2 µM
O=C(/C=C/c1ccccc1)OCCCc1ccccc1,activation,[1]; [13],inconclusive: 1.34%
same,Potency,[11],inactive
same,Potency,[7],inactive
same,Potency,[4],"inconclusive: 24.5 µM [rising, partial curve, poor fit]"
NNC(=O)CP(=O)(c1ccccc1)c1ccccc1,Potency,[1]; [13],inactive
same,Potency,[11],inactive
same,Potency,[8],inactive
OC/C(Br)=C(\Br)CO,Potency,[1]; [13],inactive
O=C(/C=C/c1ccc(O)c(O)c1)O[C@@H]1C[C@@](OC(=O)/C=C/c2ccc(O)c(O)c2)(C(=O)O)C[C@@H](O)[C@@H]1O,Potency,[1]; [13],"inconclusive: 0.668 µM [falling, full curve]"
same,Potency,[11],"inconclusive: 13.3 µM [cytotoxic, single point]"
same,Potency,[10],"inconclusive: 26.6 µM [rising, partial curve, poor fit]"
same,Potency,[7],inactive
CCCCC(CC)CN (stereo not given),Potency,[1]; [13],"inconclusive: 69.8 µM [rising, single point]"
same,Potency,[5],"inconclusive: 62.8 µM [cytotoxic, single point]"
same,Potency,[6],"inconclusive: 17.7 µM [cytotoxic, full curve]"
same,Potency,[3],"inconclusive: 35.3 µM [cytotoxic, partial curve]"
same,Potency,[4],"inconclusive: 17.7 µM [cytotoxic, partial curve]"
same,Potency,[12],"inconclusive: 56 µM [falling, single point]"
same,Potency,[9],inactive
CCCC(=O)C(=O)O,activation,[1]; [13],inconclusive: 34.7%
CCCOC(=O)NCCCN(C)C,Potency,[1]; [13],"inconclusive: 27.3 µM [falling, partial curve, poor fit] and inconclusive: 24.3 µM [falling, partial curve, poor fit]"
same,Potency,[11],inactive
same,Potency,[4],"inconclusive: 17.4 µM [cytotoxic, partial curve, poor fit]"
same,Potency,[9],"inconclusive: 12.3 µM [activator, partial curve, poor fit]"
same,Potency,[8],inactive
Cc1ccco1,activation,[1]; [13],inconclusive: 27.7%
same,Potency,[11],inactive
CC(CCC(=O)O)C(=O)O (stereo not given),activation,[1]; [13],inconclusive: 19.6%
C#C[C@]1(O)CC[C@H]2[C@@H]3[C@H](C)CC4=C(CCC(=O)C4)[C@H]3CC[C@@]21C,Potency,[1]; [13],active: 23.7 µM
same,Potency,[2],"inconclusive: 0.0027 µM [rising, full curve, poor fit]"
same,Potency,[6],"inconclusive: 33.5 µM [cytotoxic, single point]"
same,"ratio activity, negative = inhibition",[7],inconclusive: 25.6%
CNCC(O)c1ccc(O)c(O)c1 (stereo not given),Potency,[1]; [13],inactive
same,Potency,[2],inactive
same,Potency,[3],"inconclusive: 0.266 µM [cytotoxic, full curve, poor fit]"
same,Potency,[9],inactive
NC(=O)c1cccnc1,activation,[1]; [13],inconclusive: -1.42%
same,activation,[1]; at 73.3 µM (top of the series),inactive: -4.66%
same,activation,[1]; at 94.8 µM (top of the series),inactive: -20.4%
same,Potency,[6],inactive
same,Potency,[4],"inconclusive: 0.0188 µM [rising, full curve, poor fit]"
same,"activity change, negative = inhibition",[9],inconclusive: -1.8% and inconclusive: -6.45%
Cc1cc(O)c(C)c(C)c1O,Potency,[1]; [13],active: 23.7 µM
same,Potency,[11],inactive
same,Potency,[8],active: 29.8 µM
